# Reference: patent publication US6756233B1, “Method for measuring free ligands in biological fluids, and assay kits for measuring same” (priority 1985, dated 2004)
# Target: charcoal absorbed human serum albumin (Homo sapiens, UniProt P02768)
# Assay: Free testosterone assay, effect of elevated albumin (Example 4)
# Type: binding
# Description: Free testosterone calibrators, prepared by adding different amounts of testosterone to human serum free of any apparent testosterone, were calibrated by direct equilibrium dialysis and assigned free testosterone values in pg/ml. […] The tubes are incubated for 4 hours at 37° C., then decanted and radioactivity counted. Results are computed by interpolation to from the calibration curve.
# UniProt P02768, sequence (P02768 25-609): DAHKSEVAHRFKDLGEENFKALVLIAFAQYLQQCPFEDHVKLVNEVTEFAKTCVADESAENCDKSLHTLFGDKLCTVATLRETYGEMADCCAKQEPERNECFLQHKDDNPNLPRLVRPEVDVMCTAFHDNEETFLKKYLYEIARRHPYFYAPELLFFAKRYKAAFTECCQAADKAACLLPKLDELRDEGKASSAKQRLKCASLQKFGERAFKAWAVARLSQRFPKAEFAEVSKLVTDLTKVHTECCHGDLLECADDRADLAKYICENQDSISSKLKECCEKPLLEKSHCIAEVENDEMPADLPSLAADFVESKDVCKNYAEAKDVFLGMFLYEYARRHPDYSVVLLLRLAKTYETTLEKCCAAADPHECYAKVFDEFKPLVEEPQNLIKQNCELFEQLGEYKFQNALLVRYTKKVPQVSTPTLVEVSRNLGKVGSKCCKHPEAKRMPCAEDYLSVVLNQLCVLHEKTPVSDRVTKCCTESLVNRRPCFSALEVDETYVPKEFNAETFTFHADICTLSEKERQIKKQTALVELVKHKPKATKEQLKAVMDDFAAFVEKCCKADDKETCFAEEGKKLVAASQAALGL
substance,measurement,setting,value
6-hydroxytestosterone-19-carboxymethyl ether histamine,"free testosterone, Mean of 3 samples",Spiked with Albumin 1.0 gm/dl,19.3 pg/mL
same,"free testosterone, Mean of 3 samples",Spiked with Albumin 2.0 gm/dl,18.4 pg/mL
same,"free testosterone, Mean of 3 samples",Spiked with Albumin 3.0 gm/dl,17.9 pg/mL
same,"free testosterone, Mean of 3 samples",Unspiked,19.5 pg/mL
